From paper PMC4336329 (PLoS ONE, 2015)
Out of some 310,000 compounds screened, about 2,200 (0.71%) showed an effect of 50% or more. The effect is printed as a negative number. This is one part of the list.

Target: human ether-à-go-go-related gene (hERG) potassium channel (human, UniProt Q12809)
Assay: primary screen, population patch clamp on CHO cells stably expressing hERG

human ether-à-go-go-related gene (hERG) potassium channel, sequence (Q12809 whole entry, looked up): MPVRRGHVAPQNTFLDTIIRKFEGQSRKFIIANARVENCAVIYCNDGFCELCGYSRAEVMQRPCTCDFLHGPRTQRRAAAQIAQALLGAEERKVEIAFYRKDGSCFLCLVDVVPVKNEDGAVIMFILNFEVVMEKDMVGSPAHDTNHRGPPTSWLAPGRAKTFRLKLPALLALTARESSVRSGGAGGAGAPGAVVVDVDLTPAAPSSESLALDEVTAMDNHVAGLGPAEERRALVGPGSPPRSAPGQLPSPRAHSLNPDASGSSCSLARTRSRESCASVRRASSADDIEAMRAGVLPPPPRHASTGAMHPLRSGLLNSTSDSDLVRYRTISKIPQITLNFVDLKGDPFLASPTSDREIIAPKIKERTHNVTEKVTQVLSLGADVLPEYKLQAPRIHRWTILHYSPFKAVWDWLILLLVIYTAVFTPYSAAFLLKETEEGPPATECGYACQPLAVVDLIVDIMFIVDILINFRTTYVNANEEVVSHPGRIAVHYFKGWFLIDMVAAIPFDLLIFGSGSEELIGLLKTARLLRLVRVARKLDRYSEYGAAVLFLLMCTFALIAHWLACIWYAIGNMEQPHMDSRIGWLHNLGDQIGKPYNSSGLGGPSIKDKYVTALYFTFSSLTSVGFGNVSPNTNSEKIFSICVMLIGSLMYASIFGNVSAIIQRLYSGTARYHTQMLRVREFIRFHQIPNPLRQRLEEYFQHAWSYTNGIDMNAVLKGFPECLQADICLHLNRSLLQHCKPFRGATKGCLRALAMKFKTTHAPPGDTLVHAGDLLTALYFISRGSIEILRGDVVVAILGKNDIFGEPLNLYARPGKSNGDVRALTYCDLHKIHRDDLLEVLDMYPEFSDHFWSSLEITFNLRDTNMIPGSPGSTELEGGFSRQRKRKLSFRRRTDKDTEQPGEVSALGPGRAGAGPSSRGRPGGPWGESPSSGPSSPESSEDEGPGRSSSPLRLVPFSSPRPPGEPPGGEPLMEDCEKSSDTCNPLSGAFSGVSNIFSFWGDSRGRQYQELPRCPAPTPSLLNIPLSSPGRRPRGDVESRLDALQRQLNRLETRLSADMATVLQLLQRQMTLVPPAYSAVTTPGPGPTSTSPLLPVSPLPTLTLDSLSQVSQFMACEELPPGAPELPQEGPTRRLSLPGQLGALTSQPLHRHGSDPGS

| SMILES | hERG current change (%, negative = inhibition) at 1uM |
| --- | --- |
| COc1ccc(C2=CC(=O)C[C@H](c3ccc(F)cc3)C2)c(OC)c1 | 7.77% |
| O=C(Cc1ccccc1)Nc1ccc(NC(=O)c2ccccc2)c(Cl)c1 | 12.9% |
| COc1ccc(NC(=O)CSc2nnc(-c3cccnc3)o2)c(OC)c1 | 3.45% |
| COc1ccc(C(=O)NNC(=O)CNC(=O)C2CCCCC2)cc1 | 21.1% |
| Cc1ccccc1OCC(=O)NCC(C)(C)N1CCOCC1 | 10.3% |
| CCN(CC)CCCNC(=O)C1CCC(CNS(=O)(=O)c2c(C)cc(C)cc2C)CC1 (stereo not shown) | 12.6% |
| COC(=O)c1ccc(S(=O)(=O)N2CCC(c3nc4ccccc4o3)CC2)cc1 | 10.9% |
| COC(=O)Nc1sc2c(c1C(=O)NCc1ccco1)CCC2 | -9.93% |
| COc1ccc(N(C(=O)c2cccc(OC)c2OC)C2C=CS(=O)(=O)C2)cc1 (stereo not shown) | 8.3% |
| O=C(Nc1ccccc1Br)c1ccc2nccnc2c1 | 8.66% |
| C/C=C/C(=O)Nc1cccc(C2=NOC3(C2)C[C@@H](C(N)=O)N(C(=O)c2cc([N+](=O)[O-])cc([N+](=O)[O-])c2C)C3)c1 (stereo partly shown) | 5.35% |
| O=[N+]([O-])c1ccc(N(CC(O)CN2CCCCC2)S(=O)(=O)c2ccccc2)cc1 (stereo not shown) | -79.5% |
| CCCCCc1cc(=O)oc2c(C(CCN3CCCC3)c3cc(OC)c(OC)c(OC)c3)c(OC)cc(OC)c12 (stereo not shown) | -29.8% |
| COC(=O)c1cccc(Cn2c(Cl)c(/C=N/NC(=O)c3ccccc3Cl)sc2=O)c1 | 8.95% |
| CCOC(=O)c1c(C)nc2ccc(Cl)cc2c1-c1ccccc1 | 8.88% |
| COc1ccc(Cc2nc3ccc(S(=O)(=O)N4CCOCC4)cc3[nH]2)cc1 | 11.8% |
| COc1ccc(/C(C#N)=C/c2ccccn2)cc1 | 11.1% |
| S=c1nc(-c2ccco2)[nH][nH]1 | 10.7% |
| Clc1ccc(-c2nc(-c3cc4cc(Cl)ccc4o3)cs2)cc1 | 10.4% |
| CN1CCc2nc(SCc3ccc(Cl)cc3)c(C#N)c(-c3cccs3)c2C1 | -16.5% |
| CNc1oc(-c2cccc3ccccc23)nc1C#N | 14.6% |
| Cc1c(N=C(N)/N=C(\N)Nc2ccc(Br)cc2)c(=O)n(-c2ccccc2)n1C | 14.8% |

| SMILES | hERG current change (%, negative = inhibition) at 1uM |
| --- | --- |
| CCn1cc(C(=O)NCCC(=O)OC)c(=O)c2cc3c(cc21)OCO3 | 7.57% |
| CC1C(=O)N2CCCc3cc(NC(=O)CC(C)(C)C)cc1c32 (stereo not shown) | 3.27% |
| CCCOc1ccc(/C=c2\sc3ncnn3c2=O)cc1 | 14% |
| O=C(COc1ccccc1[N+](=O)[O-])Nc1ccccc1N1CCCC1 | 2.4% |
| Cn1cncc1C#Cc1ccc2cc(CCO)oc(=O)c2c1 | 6.29% |
| CC(Sc1nnnn1C)C(=O)Nc1ccc(N2CCOCC2)cc1 (stereo not shown) | -3.54% |
| CCOC(=O)C1(CCOc2ccccc2)CCN(Cc2cnc(C)[nH]2)CC1 | -17.3% |
| COc1ccc(C2/C=C\CN(C(=O)NC34CC5CC(CC(C5)C3)C4)CC(=O)N2Cc2ccc(F)cc2)cc1 (stereo not shown) | 6.28% |
| COc1ccc(C)cc1NC1=C(Cl)C(=O)N(C2CCCCC2)C1=O | -4.7% |
| COc1cccc(NC(=O)CN(C)C(=O)CSCc2nc3scc(-c4cccs4)c3c(=O)[nH]2)c1 | 5.99% |
| Cc1c(Cl)cccc1NC(=S)N(Cc1ccco1)C(C)c1ccccn1 (stereo not shown) | 5.44% |
| O=C(CC1CCCC1)Nc1cccc(Br)c1 | 13.9% |
| COc1ccc(NC(=O)C2CCCN(S(=O)(=O)c3ccc(-n4cnnn4)cc3)C2)cc1 (stereo not shown) | 15.5% |
| CC1CCC(NC(=O)c2ccc(NS(=O)(=O)c3ccc4[nH]c(=O)[nH]c4c3)cc2)CC1 (stereo not shown) | 9.16% |
| COC(=O)c1cc2c(cc1NC(=O)CSCCc1ccccn1)OCO2 | 14.4% |
| COc1cccc(NC(=O)Cc2nnc(SCC(=O)NC3=NCCS3)n2C)c1 | 18.2% |
| COc1cnn(-c2cc(Oc3ccc(C)cc3)ncn2)c(=O)c1Cl | 8.54% |
| CNc1nc2sc3c(c2c(=O)n1C)CC(C)(C)SC3 | -5.36% |
| COc1ccc(C(C)=O)cc1CSc1nnc(Nc2ccccc2C)s1 | 2.94% |
| Cn1c(/C=C/c2ccccc2)nc2ccccc21 | 6.75% |
| CN1CCN(C(=O)c2ccc(C3SCC(=O)N3Cc3ccco3)cc2)CC1 (stereo not shown) | 7.77% |
| CC1CCN(CC(=O)Nc2cc(C(F)(F)F)ccc2Cl)CC1 | 14.6% |

| SMILES | hERG current change (%, negative = inhibition) at 1uM |
| --- | --- |
| Cc1ccc(C(=O)CCC(=O)Nc2ncccc2C)cc1 | 14.2% |
| Cc1ccc(C)c(Cn2c(=O)n(CCC(=O)NCc3ccco3)c(=O)c3sccc32)c1 | 5.9% |
| CCc1sc(C(=O)Nc2cc(S(=O)(=O)N3CCOCC3)ccc2OC)cc1C | 8.49% |
| COc1ccccc1CNC(=O)CN1C(=O)c2ccccc2S1(=O)=O | 15.9% |
| CCn1c(SCC(=O)N=Nc2c(O)[nH]c3ccccc23)nc2ccccc21 | 9.85% |
| COc1ccc2ccccc2c1C(=O)/C=C\c1ccoc1 | 7.74% |
| Cc1c(C(=O)N(C)Cc2ccccc2)oc2ccc(S(=O)(=O)N3CCCC3)cc12 | -0.449% |
| Cc1nc2nc(NC(=O)c3ccco3)nn2c(C)c1Cl | 7.57% |
| COc1ccc(Br)c(C(=O)Nn2c(C)nc3ccccc3c2=O)c1 | 2.6% |
| COc1ccc(OC)c2c(=O)cc(C(=O)O)[nH]c12 | 10.4% |
| CCc1cc2c(=O)[nH]c(-c3ccccn3)nc2s1 | 3.97% |
| S=C(Nc1ccc(Nc2ccccc2)cc1)NC1CCCCCC1 | 5.25% |
| O=C(COc1ccc(Cl)cc1)NCc1nnc(SCC(=O)Nc2ccccc2F)o1 | 1.62% |
| Cc1c(C(=O)N/N=C/c2ccc(Cl)cc2)[nH]c2ccc(Cl)cc12 | 20% |
| Cc1cc(C)cc(N=C2SC(CC(=O)Nc3ccccc3)C(=O)N2CCN2CCOCC2)c1 (stereo not shown) | 10.3% |
| COc1cc2c(cc1OC)C(C(=O)N(C)C1CCCCC1)C1CCCCN1C2=O (stereo not shown) | 4.16% |
| O=C(N/N=C/c1ccc(O)c(O)c1)C1CC1 | 4.2% |
| Cc1ccc(C(=O)NCC(=O)OCc2c(F)cccc2Cl)cc1 | 19.9% |
| COc1ccc(S(=O)(=O)Nc2ccccc2)cc1OC | -10.3% |
| COc1ccc(C(=O)COC(=O)c2cccc(-n3cnnn3)c2)c(OC)c1 | 11.9% |
| COc1cc(CNCc2ccccn2)ccc1OCc1ccc(Cl)cc1Cl.Cl | -7.13% |
| COc1ccc(SC[C@H](C)CN2CC[C@H](C(C)(C)C)CCC2=O)cc1 | 12.6% |

| SMILES | hERG current change (%, negative = inhibition) at 1uM |
| --- | --- |
| Cc1onc(-c2ccccc2Cl)c1C(=O)N(C)Cc1ccccc1 | 12.4% |
| Cc1cc(OCc2cc(C(=O)O)oc2C)c2c3c(c(=O)oc2c1)CCCC3 | 9.46% |
| CCOc1ccc(S(=O)(=O)N2CCC(C(=O)NCC(=O)Nc3cccc(Cl)c3C)CC2)cc1 | -7.93% |
| Cc1ccc(Cn2c(C(C)Nc3nc(-c4ccc(C)cc4)cs3)nc3cc(Cl)c(Cl)cc32)cc1 (stereo not shown) | -7.77% |
| Cc1ccc(NC(=O)CN(C)CC(=O)Nc2ccc(F)c(F)c2F)c(Cl)c1 | 8.21% |
| CC(C)OCCCNC1=C(Cl)C(=O)c2ccccc2C1=O | 12.4% |
| COC(=O)c1c(-c2c(Cl)cccc2Cl)noc1C(=O)NN | 12.5% |
| Cc1ccc(NC(=O)C(C)OC(=O)Cc2c[nH]c3ccccc23)cc1S(=O)(=O)N1CCOCC1 (stereo not shown) | 1.71% |
| CCOc1cc(C(=O)OCc2ccc(OC)cc2)ccc1OCC(=O)N1CCOCC1 | 10.3% |
| CCOC(=O)c1cc(-c2ccc3c(c2)OCCO3)n[nH]1 | 28.2% |
| Cc1cc(Nc2ccccc2)nc2cc(O)ccc12 | 6.45% |
| Brc1ccc(-c2csc3[n+]2CCCCC3)cc1.[Br-] | 1.01% |
| CC(=O)N1c2ccc(S(=O)(=O)N3CCCC3)cc2CC1C(=O)NCc1ccc(N(C)C)cc1 (stereo not shown) | 4.54% |
| O=C(O)C1=C[C@H](c2coc3ccccc3c2=O)C[C@H](OCc2ccc(CO)cc2)O1 | 10.4% |
| CC(=O)Nc1ccc(Oc2ccc([N+](=O)[O-])cc2Cl)cc1 | 13% |
| COC(=O)c1cc(S(=O)(=O)N2c3ccccc3CC2C)cn1C (stereo not shown) | 16.1% |
| Cc1cc(NC(=O)c2cc(-c3ccc(OC(C)C)cc3)nc3ccccc23)no1 | 15.4% |
| CCO/N=C/c1ccc(OC)c(Oc2nc(OC)cc(OC)n2)c1 | 5.85% |
| CC1=C(C(=O)NCCN2CCOCC2)C2(CCC(C)CC2)OC1=O (stereo not shown) | 14.9% |
| CCOC(=O)N1CCN(S(=O)(=O)CCNC(=O)c2ccccc2)CC1 | 9.23% |
| COC(=O)C1CC(c2ccc(Cl)cc2)=NO1 (stereo not shown) | 2.86% |
| CC(=O)c1ccc(O)c(CSc2nncn2C)c1 | 9.44% |
